# In PubChem BioAssay AID1347073 (National Center for Advancing Translational Sciences (NCATS), 2019):
# About 200 (0.44%) of roughly 45,000 compounds were called active. Another 7% or so got no clear call; they are omitted. The call rests on the fitted dose curve; in most records, active means well fitted activation curve with a large enough effect; inconclusive means small, poorly fitted or top-dose-only effect; inactive means no such curve, though single readings can be large or run the other way. Some of the results follow.
# Test: qHTS of TDP-43 Inhibitors: NCGC Sytravon Library Screen; further: 0% is about no effect; nearly all actives have a fitted effect of over 55% in size
# Conditions: yeast TDP-43 toxicity rescue, BacTiter-Glo growth, 24 h; series mostly up to 46.1 µM; growth rescue (activation): at the top concentration
# Procedure, shortened: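 TDP-43-expressing yeast, pregrown in raffinose, seeded at OD600 0.02 in galactose medium with compound for 24 hr at 30 deg C. Growth read by BacTiter-Glo luminescence, so rescue of toxicity appears as activation.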
row,SMILES,growth rescue (activation)
1,Fc1ccccc1N1CCN(Cc2cnc(Cl)s2)CC1,inactive: 2.71%
2,Clc1ccccc1CNCc1ccncc1,inactive: 14.4%
3,COc1ccc(S(=O)(=O)NCCOc2ccccc2)cc1C,inactive: 21.2%
4,Cc1ccccc1NS(=O)(=O)c1ccc2c(c1)NC(=O)CO2,inactive: 5.14%
5,C/C(=N/O)c1ccc2c(c1)OCCOCCOc1cc(/C(C)=N/O)ccc1OCCOCCO2,inactive: 12%
6,Cc1ccc(C)c(NC(=O)CN(C)C(C)C(=O)N2CCCC2)c1 (configuration not stated),inactive: -4.52%
7,COC(=O)c1cc(-c2ccc(OC)cc2F)nc2nc(SC)[nH]c(=O)c12,inactive: -4.83%
8,CCOc1ccc(NC(=O)CCNC(=O)c2ccco2)cc1,inactive: 3.28%
9,Cc1cc(C)cc(-c2nnc(SCC(=O)NCC3CCCO3)o2)c1 (configuration not stated),inactive: -11.9%
10,CCOc1ccccc1CN1CCN(C/C=C/c2ccc(OC)cc2)CC1CCO (configuration not stated),inactive: -3.15%
11,COc1ccccc1OCCC(=O)OCC(=O)Nc1ccc2c(c1)OCCO2,inactive: -1.37%
12,COc1ccc(OC)c(-n2c(-c3cc(-c4ccccc4)n[nH]3)n[nH]c2=S)c1,inactive: 1.27%
13,Cc1cccc(NC(=O)COC(=O)c2cccs2)c1C,inactive: 5.3%
14,C/C(=N/Nc1ncc(C(F)(F)F)cc1Cl)c1ccncc1,inactive: 7.45%
15,CC1CN(c2nnc(NC(=O)c3ccccc3)s2)CC(C)O1 (configuration not stated),inactive: 23.8%
16,c1coc(-c2ccnc3ncnn23)c1,inactive: 9.23%
17,O=C(NC(=S)N1CCN(c2ccc([N+](=O)[O-])cc2)CC1)c1ccccc1Cl,inactive: 5.35%
18,CCc1cccc2c(C(=S)N3CCOCC3)c[nH]c12,inactive: 5.19%
19,CC(C)c1onc(C(=O)N(C)C2CCCCC2)c1[N+](=O)[O-],inactive: 9.35%
20,OCc1cnc(SCc2ccccc2)n1Cc1ccccc1,inactive: -1.81%
21,CCOC(=O)c1cccc(NC(=O)C2=C(C)C(=O)OC23CCCCC3)c1,inactive: 9.83%
22,O=C1/C(=C\c2ccc(O)c(O)c2)SC(=S)N1Cc1ccccc1,inactive: -94.6%
23,COC(=O)c1nc2ccccn2c1F,inactive: 5.89%

row,SMILES,growth rescue (activation)
1,CN(C)c1ccc(Cl)cc1N,inactive: 0.676%
2,O=C(Cc1ccccc1)N[C@@H](Cc1ccccc1)c1nc2ccccc2[nH]1,inactive: -19%
3,CC1CCCC(NC(=O)COC(=O)Cc2cn3ccsc3n2)C1C (configuration not stated),inactive: 26.7%
4,Cc1ccc(-c2csc(NS(=O)(=O)c3cccc(F)c3)n2)o1,inactive: 11.9%
5,O=C(NCc1ccccc1)C(c1cccnc1)N(C(=O)c1ccccn1)c1ccc(F)cc1 (configuration not stated),inactive: 2.68%
6,CCC1C(=O)C(C)(C)C(=O)OC1c1ccc([N+](=O)[O-])cc1 (configuration not stated),inactive: 14%
7,CN(C)c1ccc(C(=S)N2CCCCC2)cc1,inactive: 21.6%
8,Cc1ccc(C(=O)Nc2nnc(COc3ccccc3)s2)cc1,inactive: -7.47%
9,CCOP(=O)(OCC)C(NC(=O)c1cccs1)C(F)(F)F (configuration not stated),inactive: 1.28%
10,CC(=O)c1cn(CC(=O)Nc2ccccc2F)c2ccccc12,inactive: 4.81%
11,Cc1ccc(CNC(=O)CCS(=O)(=O)c2ccc(Br)cc2)cc1,inactive: 6.02%
12,Cn1ccc(C(=O)OCC(=O)Nc2ccccc2Cl)n1,inactive: -26.1%
13,CCc1ccc(N(CC(=O)NCc2ccc3c(c2)OCO3)C(=O)c2csnn2)cc1,inactive: -4.61%
14,CCCCOC(C)n1cc(F)c(=O)[nH]c1=O (configuration not stated),inactive: -13.4%
15,O=C(O)c1nn(CCOc2ccccc2F)c(=O)c2ccccc12,inactive: -9.09%
16,COc1ccc(C(=O)C2CCN(CC(=O)Nc3ccccc3F)CC2)cc1,inactive: -0.792%
17,O=C(CNC(=O)c1ccccc1)NCc1ccc(Cl)cc1,inactive: 10.6%
18,CCCCn1c(N)c(N(CC)C(=O)c2ccc(C#N)cc2)c(=O)[nH]c1=O,inactive: 1.39%
19,O=C(COc1ccccc1)N/N=C/c1sc(=O)n(Cc2cccc(C(=O)O)c2)c1Cl,inactive: -46.8%
20,O=C(NCc1ccc(Cl)nc1)c1csc(COCCO)n1,inactive: 5.39%
21,CCOc1ccc(N2C(=O)CC(N(CCc3ccc(OC)cc3)C(=O)/C=C/C(=O)O)C2=O)cc1 (configuration not stated),inactive: 3.1%
22,CCc1ccc(NC(=O)C(=O)NNC(=O)c2cccs2)cc1,inactive: -23.6%
23,COc1ccc(-n2nc(C(=O)NCC(=O)N3CCOCC3)c3ccccc3c2=O)cc1Cl,inactive: 12.3%

row,SMILES,growth rescue (activation)
1,CCOC(=O)N1CCN(C(=O)CCn2c(=O)[nH]c3ccsc3c2=O)CC1,inactive: 8%
2,COc1ccc(N(C(=O)C2CCCCC2)S(=O)(=O)c2cccc3cccnc23)cc1,inactive: -6.83%
3,Nc1nc2ccc(NC(=O)c3ccco3)cc2s1,inactive: 8.7%
4,O=c1c2c3n(c(=O)nc2[nH]n1-c1ccccc1)CCCCC3,inactive: -12.9%
5,O=C(c1ccc(F)cc1)N(C(=O)c1ccc(F)cc1)c1ncccn1,inactive: 17%
6,CCCCNC(=O)Cn1cnc2sc(C)c(S(=O)(=O)N3CCN(c4ncccn4)CC3)c2c1=O,inactive: 5.7%
7,CCOC(=O)N1CCN(C(=O)Cn2ncn3nc(-c4cccs4)cc3c2=O)CC1,inactive: -36.5%
8,CCOC(=O)C1=C(COC(=O)COc2ccccc2C=O)NC(=O)NC1C (configuration not stated),inactive: 12.9%
9,O=c1sc2ccccc2n1Cc1ccccc1,inactive: 31.8%
10,CN(c1ccccc1)S(=O)(=O)c1cccc(NC(=O)c2cc(=O)c3ccccc3o2)c1,inactive: 2.76%
11,COc1ccc(C2C3=C(CC(C)(C)CC3=O)Oc3ncn4nc(-c5cccnc5)nc4c32)cc1 (configuration not stated),inactive: 24.6%
12,CC(C)(C)Nc1nc(N)nc(Cl)n1,inactive: -3.99%
13,COc1cccc(O)c1CN1CCCC(C(=O)c2cccc(C(F)(F)F)c2)C1 (configuration not stated),inactive: 2.48%
14,COc1cc(CNCCO)cc(Cl)c1OCc1ccc(Cl)cc1Cl,inactive: -20.5%
15,O=C(NCc1ccccc1)C(c1ccc(F)cc1)N(C(=O)c1csnn1)c1ccccc1 (configuration not stated),inactive: -7.63%
16,COc1cc(C2c3c([nH]c(=O)[nH]c3=O)Nc3ccc4ccccc4c32)ccc1O (configuration not stated),inactive: -0.486%
17,CCCC1Cc2[nH]c(=O)c(C#N)cc2CO1 (configuration not stated),inactive: 8.32%
18,COc1ccc(C)cc1N(CC(=O)Nc1cccnc1)S(=O)(=O)c1ccc(C)cc1,inactive: 4.48%
19,CC1=NOC(=O)/C1=C/c1ccc(O)c(Cl)c1,inactive: -11.2%
20,CC(OC(=O)c1ccccc1CCc1ccccc1)C(N)=O (configuration not stated),inactive: -1.07%
21,CC1(C)Cc2noc(N)c2C(C)(C)N1OC(=O)c1ccco1,inactive: 14.2%
22,CC(C)c1nnc(NC(=O)CCS(=O)(=O)c2ccccc2)s1,inactive: 13.2%
23,O=C(Nc1ccc(F)cc1)Nc1nnc(-c2ccco2)s1,inactive: -2.85%

row,SMILES,growth rescue (activation)
1,CN(C)c1nc(Nc2ccc(Cl)c(Cl)c2)nc(N(C)C)n1,inactive: 5.39%
2,Nc1nc(-c2ccccc2)c(N=Nc2cccc3ccccc23)s1,inactive: -7.27%
3,COc1ccccc1CNC(=O)C1CCCN(S(=O)(=O)c2cccs2)C1 (configuration not stated),inactive: 14.5%
4,CCOCCn1c(CN2CCc3ccccc3C2)nc2c1c(=O)n(C)c(=O)n2C,inactive: -2.33%
5,COc1ccc(CCNC(=O)COc2ccccc2[N+](=O)[O-])cc1OC,inactive: 4.07%
6,Cn1cccc1/C=C1\SC(=S)N(NC(=O)c2ccccc2O)C1=O,inactive: 1.23%
7,CCN(CCC#N)c1ccc(/C=N/Nc2nc(C)cc(=O)[nH]2)c(C)c1,inactive: 17.8%
8,CC(=O)Nc1ccc(S(=O)(=O)Oc2ccccc2N2C(=O)C3C4CCC(C4)C3C2=O)cc1 (configuration not stated),inactive: 12%
9,Cc1ccc(C)c(OCC(=O)NC(Cc2c[nH]c3ccccc23)C(=O)O)c1 (configuration not stated),inactive: -3.07%
10,Cc1cccc(C(=O)OCC(=O)Nc2ccc(F)cc2)c1,inactive: -1.28%
11,Cc1onc(-c2ccccc2)c1C(=O)Nc1nncs1,inactive: -11%
12,CC(=O)c1c(C)[nH]c(C(=O)Nc2ccc(Cl)cc2)c1C,inactive: -6.02%
13,Cc1cccc(C)c1NC(=O)COC(=O)c1ccccc1[N+](=O)[O-],inactive: 13.4%
14,O=C(CCCOc1ccc(Cl)cc1Cl)NCc1ccccn1,inactive: -9.15%
15,Cc1ccc(S(=O)(=O)N2CCN(C(=O)CSc3ccc(F)cc3)CC2)cc1,inactive: 4%
16,O=C(CNC(=O)OCc1ccccc1)NC1CCCCNC1=O (configuration not stated),inactive: -14.4%
17,Cc1ccc(NC(=O)C(C)OC(=O)CSc2ccccc2)cc1 (configuration not stated),inactive: -24.2%
18,CCCC(=O)N1c2ccccc2C(N(C(C)=O)c2ccccc2)CC1C (configuration not stated),inactive: -11.9%
19,CCn1c2ccccc2c2cc(CN3CCN(Cc4ccccc4F)CC3)ccc21,inactive: 8.27%
20,COc1cc(CC(=O)Nc2nc(-c3ccc(F)c(F)c3)cs2)cc(OC)c1OC,inactive: 9.61%
21,O=C(Nc1ccc(Cl)cn1)c1cccc(S(=O)(=O)N2CCCCC2)c1,inactive: 2.84%
22,O=C(NCc1ccccn1)Nc1ccc(Br)cc1Cl,inactive: 9.51%
23,COCCn1c(-c2ccccc2Cl)nc2c(c(=O)c3ccccc3n2C)c1=O,inactive: 2.61%

row,SMILES,growth rescue (activation)
1,Cc1ccc(-c2cc3ccccc3nc2N2CCOCC2)cc1,inactive: -14.3%
2,CCCCc1n[nH]c2c1/C(=N/O)CC(c1ccccc1)C2 (configuration not stated),inactive: 14.6%
3,CC1(C(=O)Nc2ccc3[nH]ncc3c2)CCN1C(=O)C1(c2ccccc2)CC1 (configuration not stated),inactive: 3%
4,CCCS(=O)(=O)NC(=O)C1(C)CCN(C(=O)c2ccc(C(=O)OC)cc2)C1 (configuration not stated),inactive: 5.64%
5,CN(C)C=NC(=O)c1cn(-c2ccc(F)cc2)c(=O)c2ccccc12,inactive: -6.48%
6,CCOC(=O)C1CCCN(C(=O)CCn2nnnc2CN2CCOCC2)C1 (configuration not stated),inactive: -12%
7,CCC(=O)N1CCc2cc(Br)cc(S(=O)(=O)N3CCC(C(=O)NCCCOC(C)C)CC3)c21,inactive: -31%
8,CC(C)OC(=O)CC1C(=O)NCCN1C(=S)NC(=O)c1cccs1 (configuration not stated),inactive: 4.12%
9,Cc1nc(NC(=O)c2ccccc2)sc1Cc1ccc2c(c1)OCO2,inactive: 19.9%
10,O=C(Nc1ccccc1C(=O)NC(Cc1ccc(O)cc1)C(=O)O)c1ccccc1 (configuration not stated),inactive: -8.99%
11,CCOC(=O)C(=O)NC(C)c1ccccc1 (configuration not stated),inactive: -3.87%
12,Cc1ccc(S(=O)(=O)N2CCOCC2)cc1NC(=O)COC(=O)CCC(=O)c1ccc(F)cc1,inactive: 34.6%
13,COc1ccccc1CNC(=O)c1nccnc1CO,inactive: 3.1%
14,Cc1ccc(S(=O)(=O)c2cnc(-c3ccccc3)nc2N2CCCCC2)cc1,inactive: 4.98%
15,O=C(Nc1nnc(COc2ccccc2F)s1)Nc1ccccc1F,inactive: 7.53%
16,O=S(=O)(NCC1CCCO1)c1ccccc1F (configuration not stated),inactive: 5.98%
17,O=[N+]([O-])c1ccc(N2CCNCC2)cc1Sc1nc2ccccc2[nH]1,inactive: -26.5%
18,COC(=O)c1ccc(C)c(NC(=O)C(CCSC)NC(=O)c2cc(OC)c(OC)c(OC)c2)c1 (configuration not stated),inactive: 10%
19,CSc1ncc(Cl)c(C(=O)Nc2ccc(NC(C)=O)cc2)n1,inactive: -5.92%
20,O=C(COC(=O)COc1ccccc1F)Nc1cccc(S(=O)(=O)N2CCCCC2)c1,inactive: 7.43%
